Measurements taken from the supplement of paper PMC3334620.
In all, about 33,000 sequences were measured (“E-score (-0.5 to 0.5)”: median about -0.054, highest 2% from about 0.35 on). The list shows a part of the results.

target: T1, Stb5 (UniProt P38699); test: PBM E-score (8-mer binding enrichment) (E-score (-0.5 to 0.5)); higher = stronger / more preferred TF binding; most listed sequences are background and not binding sites; settings: protein concentration: 200 nM; construct: GST-full length
T1 sequence: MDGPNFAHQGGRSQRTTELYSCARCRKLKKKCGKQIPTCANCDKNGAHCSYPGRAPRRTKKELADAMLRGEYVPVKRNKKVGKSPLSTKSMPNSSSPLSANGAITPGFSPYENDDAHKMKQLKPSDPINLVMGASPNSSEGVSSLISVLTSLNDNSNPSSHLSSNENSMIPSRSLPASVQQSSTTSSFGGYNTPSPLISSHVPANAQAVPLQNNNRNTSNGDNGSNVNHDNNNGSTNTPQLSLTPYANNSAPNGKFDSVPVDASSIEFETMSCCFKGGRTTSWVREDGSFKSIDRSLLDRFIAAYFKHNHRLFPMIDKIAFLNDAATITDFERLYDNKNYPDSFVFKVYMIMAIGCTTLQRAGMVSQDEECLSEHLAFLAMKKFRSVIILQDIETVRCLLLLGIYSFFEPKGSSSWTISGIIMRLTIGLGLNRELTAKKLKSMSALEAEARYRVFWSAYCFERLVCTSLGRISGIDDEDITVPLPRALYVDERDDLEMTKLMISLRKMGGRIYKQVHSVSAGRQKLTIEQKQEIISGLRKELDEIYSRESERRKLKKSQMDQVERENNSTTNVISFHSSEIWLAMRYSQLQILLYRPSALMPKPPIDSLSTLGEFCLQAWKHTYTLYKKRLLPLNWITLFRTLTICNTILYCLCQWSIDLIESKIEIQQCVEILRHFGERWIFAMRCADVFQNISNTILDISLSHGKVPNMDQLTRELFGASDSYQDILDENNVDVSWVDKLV
Procedure: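 Universal 'all 10-mer' protein binding microarrays (Agilent AMADID 015681) probed with GST-tagged S. cerevisiae TFs (full-length or DBD) made by in vitro transcription/translation (PURExpress), about 100-200 nM. Bound TF was detected with fluorescent anti-GST. Each ungapped 8-mer (which stands for itself and its reverse complement) is scored by the PBM enrichment score (E-score), a modified Wilcoxon-Mann-Whitney statistic from -0.5 to +0.5, computed with the Universal PBM Analysis Suite. Scale: above 0.35 generally sequence-specific binding.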

Sequence | PBM E-score
CTACTGGC | -0.167
CTGGCCCC | -0.0201
AACACTCG | -0.0704
GGTCCACA | -0.0714
CTCTGAGC | -0.3
AAAGGACC | 0.212
ATGACCAA | -0.0477
CTCCAGCA | -0.259
TATCCCAA | -0.00571
ACGTTACG | -0.0767
ACGACACG | 0.0906
AGACTTAG | -0.122
GTAACCCA | -0.177
AGGAACAA | -0.0803
ACTAAGAA | -0.0691
TATGAGGA | -0.186
AGTTCGGC | 0.0437
TACATTGA | -0.111
CATCGTAG | -0.138
CCTAGTTA | 0.141
CCCACTCA | -0.26
GGCCATAC | 0.157
ACGAGTCC | 0.00708
GGACCAAA | 0.209
ACGCTTAC | -0.201

Sequence | PBM E-score
CATATCAC | 0.0389
ATTGTAGC | 0.0323
ATCTATCC | 0.143
AGGTATCA | -0.119
GCGGGCTA | 0.218
CCGTACTA | 0.18
ACGAGCAT | -0.346
AAACCCCG | 0.476
GATTACTA | 0.106
CCAGGGTA | -0.105
CACTAGCG | 0.0813
CAAGCCTA | -0.272
CTTTGGAC | -0.0747
ATTCTCGG | 0.0669
GTCACCAC | 0.0379
ACCAACGA | -0.123
AGCTTTCG | -0.116
CAAGGTCC | 0.127
TCCCGAGA | 0.0599
GCACAAGA | -0.125
ACTCTCCA | -0.0128
ATCCCTTC | -0.136
AACGACGC | -0.0247
CAACCCGC | 0.169
CGCCCAAA | 0.0165

Sequence | PBM E-score
CGCTGAAC | -0.138
GCCAGTGA | -0.214
ACATCACC | 0.158
ACAATATG | 0.0599
CCATAAAA | -0.0329
CACTTACG | 0.034
AACGCCTG | -0.0861
CTTGAACC | -0.0984
AATATATT | 0.208
GACAGCCA | -0.339
TCACAGAA | -0.147
ACAAAATA | -0.0759
CCGAACAG | 0.208
CGTGTAGC | -0.209
GATGAATC | -0.198
ACTCTAAC | -0.0984
CTATACTC | -0.00519
AGCCGCCC | 0.144
CTCGCGGC | 0.164
AGTCGCAC | -0.058
AATTCTTG | -0.282
CGATTCCC | 0.035
AGTGAGTG | -0.0629
CAGGGTAC | -0.21
CAGCCGGC | 0.217

Sequence | PBM E-score
AACCCGAT | 0.222
GGGAGTGA | -0.0152
AGAAGGCT | -0.363
CTAACCAA | -0.133
CCTGACCC | 0.0495
TACGGTAA | 0.162
CAGCGCTA | 0.078
CCTCGAAG | -0.101
AGGTTATA | -0.0254
ATAAAGTC | 0.183
CCGTAGTA | -0.0189
GGCTTCAA | -0.102
GCTGAACA | -0.0963
ATACTGAT | -0.202
CCTTCTCA | -0.135
CTTTGTGA | -0.118
ACCCGGCC | 0.188
AAAGAGTA | -0.0917
AGCTTTGA | 0.058
CGGAAGTC | 0.204
CCTGAAAG | -0.264
GATTGGTA | -0.149
AGGCAACG | -0.101
GACCCCTC | -0.131
GACCACAC | -0.152

Sequence | PBM E-score
GCGCGCGC | 0.19
GGCCCTAC | 0.21
AGGCTTCG | 0.0448
GATCTTAA | 0.024
ACGCTCCG | 0.174
ACGAGATC | -0.0495
GCACGCGC | 0.0505
AGTAATTG | -0.0651
GTTAAGGA | 0.0417
ACTGGGCT | -0.235
AGACTGAC | -0.166
CTTGCCTA | -0.21
ATGTATAG | 0.0955
ATTGCCTA | -0.113
CGCGTCCC | -0.065
CTGCGTCA | -0.121
CACCGGCA | 0.377
AGTTCGTC | -0.0675
AACTTTAG | -0.0896
AGGCGGAC | 0.356
AGTTACGA | -0.124
CGACATGC | 0.0496
CGAGGCGA | -0.265
AGCCCTCC | -0.28
AATACACG | -0.157

Sequence | PBM E-score
GCTGAAGC | -0.195
AAGCTCAA | -0.18
CTCTCTTC | -0.237
GATCTTAC | 0.124
GATATTAA | 0.26
AGCGAGCG | 0.076
CTTCAAGA | -0.168
GACACGTC | -0.0123
ATCTCCTA | -0.138
CTGAGCCC | -0.0863
CTCTCTAA | -0.297
ACTACACC | 0.128
CAATAGAA | -0.16
AGGTCTCC | -0.169
ACTACGGG | 0.206
GCCTGAGC | -0.0454
ACGTGCAC | -0.21
ATGGGGGG | -0.236
GTGGCAAA | 0.095
GAGCATTA | -0.15
AGGAACGC | -0.0957
CTTTCGGA | 0.225
AATTTGGG | -0.182
ACTGCGAG | 0.0445
AGTGCCTA | -0.153

Sequence | PBM E-score
AACTCGAC | -0.133
AGAGCGCA | 0.056
ATCCCAAT | -0.241
AAGAGGGT | -0.176
AGTCAATC | -0.075
CTAGCATC | -0.244
ACAACTGT | -0.175
AAGAGCTC | -0.143
CGGGACGC | 0.187
ACCCGATC | 0.19
AAGTGCAG | -0.303
CACCTAGG | 0.0145
GAGAATAC | 0.0268
CATGACAA | -0.264
CAGCCAGG | -0.311
CCTCTAGC | -0.105
ACGCCATA | -0.191
CCGCATGA | 0.0347
AAGCCGCG | 0.287
CCCCGTCC | 0.315
GGTCTTAA | 0.355
ACTGCCAG | -0.203
